In the supplement of paper PMC3334620:
The full ranking holds about 33,000 sequences; the median of “E-score (-0.5 to 0.5)” is about -0.043, and the highest 2% start at about 0.37. The list shows a part of the results.

These sequences were tested against T1, Upc2 (UniProt Q12151) (assay: PBM E-score (8-mer binding enrichment) (E-score (-0.5 to 0.5)); higher = stronger / more preferred TF binding; most listed sequences are background and not binding sites). Conditions: protein concentration: 200 nM; construct: GST-full length.
T1 sequence: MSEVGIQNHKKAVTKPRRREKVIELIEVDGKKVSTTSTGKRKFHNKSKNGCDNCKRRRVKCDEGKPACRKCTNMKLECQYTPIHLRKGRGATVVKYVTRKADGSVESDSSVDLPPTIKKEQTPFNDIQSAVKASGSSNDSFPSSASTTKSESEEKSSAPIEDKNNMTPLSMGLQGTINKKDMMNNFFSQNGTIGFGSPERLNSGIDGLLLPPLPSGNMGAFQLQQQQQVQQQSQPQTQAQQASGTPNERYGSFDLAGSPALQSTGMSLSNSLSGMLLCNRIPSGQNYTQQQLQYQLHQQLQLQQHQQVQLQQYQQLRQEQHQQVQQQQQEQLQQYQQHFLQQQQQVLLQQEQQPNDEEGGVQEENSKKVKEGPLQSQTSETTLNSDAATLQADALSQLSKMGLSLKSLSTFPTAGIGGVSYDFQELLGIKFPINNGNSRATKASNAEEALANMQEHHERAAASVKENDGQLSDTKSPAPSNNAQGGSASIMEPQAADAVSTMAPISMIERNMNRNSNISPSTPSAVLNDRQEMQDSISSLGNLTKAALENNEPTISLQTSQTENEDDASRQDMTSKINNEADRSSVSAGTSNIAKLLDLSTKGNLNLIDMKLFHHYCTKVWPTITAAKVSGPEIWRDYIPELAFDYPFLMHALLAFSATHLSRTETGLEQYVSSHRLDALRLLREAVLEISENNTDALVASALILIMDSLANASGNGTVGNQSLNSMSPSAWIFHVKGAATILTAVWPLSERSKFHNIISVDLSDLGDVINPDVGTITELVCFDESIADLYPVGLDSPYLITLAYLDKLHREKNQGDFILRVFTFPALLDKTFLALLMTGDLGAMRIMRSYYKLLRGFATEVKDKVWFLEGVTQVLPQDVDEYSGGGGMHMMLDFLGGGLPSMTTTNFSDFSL
Summary of the method: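 Yeast transcription factors carrying a GST tag, as full-length proteins or DNA-binding domains, were produced by PURExpress in vitro transcription/translation. About 100-200 nM protein was applied to universal all-10-mer Agilent arrays, double-stranded by primer extension on fresh or once-stripped slides. Bound protein was detected with fluorescent anti-GST, and scans were normalised with masliner. The Universal PBM Analysis Suite gave each ungapped eight-base word, pooled with its reverse complement, an E-score, a modified Wilcoxon-Mann-Whitney statistic.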

| Sequence | PBM E-score |
| --- | --- |
| GAGTAGAC | -0.0169 |
| CAAAGCTC | -0.0741 |
| GAGCGCTA | -0.0659 |
| GCCAGGAA | -0.103 |
| AGTGACAT | -0.207 |
| GACCGTCC | -0.156 |
| AACACGTA | 0.281 |
| AACGTAGG | -0.116 |
| CAAGTAAG | -0.254 |
| CAGCGAGG | -0.224 |
| AAACGATT | 0.449 |
| GCATCTGA | -0.208 |
| CCATTTGC | -0.00531 |
| ACGAACCA | 0.376 |
| AGATTCCT | -0.332 |
| GCCTATAC | 0.276 |
| CAAGGTGA | -0.206 |
| ATAACCGA | 0.271 |
| GCAGTGCC | -0.274 |
| ATATGTCA | -0.0697 |
| GGTCACGA | -0.086 |
| CGGCAGAA | -0.0939 |
| TGGAACCA | -0.0613 |
| CGCAGCCA | -0.0707 |
| TCACAAGA | -0.2 |

| Sequence | PBM E-score |
| --- | --- |
| ATGCGTAC | 0.282 |
| GTTTGCGA | 0.277 |
| CGCCGAAC | 0.192 |
| CTGATGAA | -0.0906 |
| AACCTGTC | 0.0752 |
| ATTCGACC | -0.00888 |
| CGCGTTCC | 0.223 |
| TGTAATAA | -0.0543 |
| GAGTGAGA | -0.214 |
| ATAGCCAT | -0.0513 |
| AGTTGGGA | -0.13 |
| CTACCAGA | -0.122 |
| ACGACACA | 0.321 |
| ATAGCTCG | 0.159 |
| GCGCCAGA | -0.0862 |
| TCCATTAA | -0.128 |
| AAAGTGCG | -0.00498 |
| GTATCCAC | 0.11 |
| TTAGCAAA | -0.0412 |
| GACATAGA | -0.131 |
| CTCAAAAG | -0.0616 |
| CGTATGCC | 0.372 |
| TACCGCCA | -0.0909 |
| TGTACAAA | 0.0122 |
| AGCTCTGC | -0.424 |

| Sequence | PBM E-score |
| --- | --- |
| AGCTTGCG | -0.0873 |
| AATGTAGA | -0.16 |
| AGAGTTAG | -0.199 |
| CTGTATAA | 0.156 |
| ATTCATAG | -0.186 |
| GCTTGTAC | 0.237 |
| CAATTGGC | 0.0559 |
| ACCGAACA | 0.0985 |
| CCGGAGCA | -0.0221 |
| TGACGCCA | -0.0243 |
| GAGCCGAC | -0.121 |
| CGCCTATA | 0.234 |
| GCCTTAGA | -0.138 |
| CCTACACC | -0.131 |
| CATATGGA | 0.0409 |
| AAATTAAT | 0.0208 |
| GACGGAGA | -0.106 |
| ACTAACCC | -0.252 |
| AGTCATCG | 0.124 |
| TCGTGTAA | 0.311 |
| ATTGCCCA | -0.0428 |
| CTGAGAAG | -0.153 |
| CTGCCTTC | -0.192 |
| GCTCACCC | -0.115 |
| CGGGTCAG | -0.0198 |

| Sequence | PBM E-score |
| --- | --- |
| CGCGAAAG | 0.113 |
| CTTACTAA | 0.0609 |
| GATGAGAC | -0.115 |
| CCTATTGA | -0.0766 |
| AGACCTAT | 0.118 |
| AAGCCCAT | -0.112 |
| AAGGCCAA | -0.0421 |
| AACATCAT | -0.094 |
| GACTCTTA | -0.131 |
| CCCTGAAC | 0.253 |
| CTCTGAGA | -0.221 |
| AGGCGTCC | -0.22 |
| GGCGGAAC | -0.105 |
| CATCCAGC | 0.0575 |
| CCATGGCC | -0.288 |
| AACAAAAG | 0.0842 |
| GAGCTAGA | -0.109 |
| CGTGTATA | 0.284 |
| ATAGCGCA | 0.0791 |
| AAGCGAAG | 0.309 |
| ATGTCTTG | -0.0852 |
| AGTGAATG | -0.0487 |
| ACAATCAT | -0.208 |
| GCGCAAGA | -0.0728 |
| TACGATCA | 0.422 |

| Sequence | PBM E-score |
| --- | --- |
| CCCGAACC | 0.129 |
| CAAACCAG | -0.0251 |
| CCTAAGCC | -0.291 |
| CACACGCA | -0.0579 |
| CACACCGG | -0.22 |
| CCGGTGCG | 0.0885 |
| CAGTGGTC | 0.0415 |
| GGTCCTGA | -0.0501 |
| GGTAACAC | -0.0963 |
| CCTGGTAG | -0.28 |
| CCTTATAC | 0.353 |
| CAGTCACG | -0.282 |
| ACCGTCCG | -0.0883 |
| AATTTTCA | -0.00279 |
| GACACTCA | -0.183 |
| CCACTCTA | -0.247 |
| AAATATTT | 0.131 |
| CTGCTGGC | -0.198 |
| TAATGCGA | 0.245 |
| CTTTCACC | 0.0779 |
| ATATACCG | 0.194 |
| CGCAGCTA | -0.151 |
| AGTACACC | 0.0771 |
| ACTCCACT | -0.196 |
| CTGCCAGA | -0.175 |

| Sequence | PBM E-score |
| --- | --- |
| ACAGCTTG | -0.0169 |
| CTTGAACA | 0.0104 |
| CAAGAGCC | -0.285 |
| AAGCCGGA | -0.126 |
| AACGTCGC | 0.1 |
| CACTGGGC | -0.242 |
| GCTAATCC | -0.025 |
| CAAGATCG | 0.249 |
| CTGTGGAA | -0.176 |
| CTGTAAGC | -0.0287 |
| GGTGCATA | -0.0936 |
| TTGAGAAA | -0.0809 |
| GCGGACCA | -0.056 |
| ATGTAATA | 0.0423 |
| TACAAGGA | 0.0076 |
| GGCTCCTA | -0.0529 |
| AAATTCTT | -0.114 |
| CTTCACCC | 0.0251 |
| TATCTGCA | -0.0203 |
| ACCTCCCG | 0.0563 |
| AATCCGGT | 0.139 |
| CAGGGGAC | -0.329 |
| CGATGGCG | -0.00074 |
| GACTAGAC | -0.125 |
| CAAACACG | 0.146 |

| Sequence | PBM E-score |
| --- | --- |
| TGCGCTAA | 0.161 |
| GCCGTTCC | 0.348 |
| GAAACCAC | -0.144 |
| GTTACGAA | 0.409 |
| ACGTGCAA | 0.0824 |
| CAGCCCGC | -0.382 |
| AAACAATA | 0.0112 |
| GTCTCGAA | -0.0265 |
| AGTCTCTC | -0.168 |
| ATTGGCAG | -0.183 |
| CAGCAAAG | -0.0457 |
| TATCTTGA | -0.131 |
| ACGCTGCC | -0.0218 |
| CCCAAGAA | -0.243 |
| ATAACTCG | 0.167 |
| GTTATAAC | 0.028 |
| ACCTTACT | 0.146 |
| TAAGGCGA | 0.133 |
| GATGGATA | -0.127 |
| AATGCGAA | 0.191 |
| GTACGTAA | 0.337 |
| AACAGAGT | 0.126 |
